Data: PubChem BioAssay AID1460 (National Center for Advancing Translational Sciences (NCATS), 2008)
Where “and” joins values, the source holds several entries; their conditions need not be identical. Identical values can stand only once. The whole screen tested about 270,000 compounds, of which about 5,800 (2.1%) were called active. Inconclusive results, whose numbers are uncertain, are shown with a selection of clear calls. Calls follow the shape of the dose curve; as a rule, active = well fitted inhibition curve with a large enough effect; inconclusive = small, poorly fitted or top-dose-only effect; inactive = flat fitted curve, though single readings scatter. Potencies of inconclusive entries are doubtful fits and often do not repeat.

Molecular target: Microtubule-associated protein tau (Homo sapiens) (UniProt P10636)
Assay: qHTS for Inhibitors of Tau Fibril Formation, Thioflavin T Binding; also: nearly all actives have a fitted effect of over 55% in size
Settings: recombinant tau K18 P301L (four-repeat tau fragment), heparin-induced fibrillization, ThT fluorescence; series mostly up to 57.4 µM
Method in brief: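 Heparin-induced fibrillization of the P301L-mutant K18 repeat-domain fragment of human tau was followed by ThT binding in quantitative high-throughput format.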
Potency is read from the fitted curve at half-maximal effect; tags tell the direction and shape of the fitted curve.

UniProt P10636, sequence (P10636 whole entry, looked up): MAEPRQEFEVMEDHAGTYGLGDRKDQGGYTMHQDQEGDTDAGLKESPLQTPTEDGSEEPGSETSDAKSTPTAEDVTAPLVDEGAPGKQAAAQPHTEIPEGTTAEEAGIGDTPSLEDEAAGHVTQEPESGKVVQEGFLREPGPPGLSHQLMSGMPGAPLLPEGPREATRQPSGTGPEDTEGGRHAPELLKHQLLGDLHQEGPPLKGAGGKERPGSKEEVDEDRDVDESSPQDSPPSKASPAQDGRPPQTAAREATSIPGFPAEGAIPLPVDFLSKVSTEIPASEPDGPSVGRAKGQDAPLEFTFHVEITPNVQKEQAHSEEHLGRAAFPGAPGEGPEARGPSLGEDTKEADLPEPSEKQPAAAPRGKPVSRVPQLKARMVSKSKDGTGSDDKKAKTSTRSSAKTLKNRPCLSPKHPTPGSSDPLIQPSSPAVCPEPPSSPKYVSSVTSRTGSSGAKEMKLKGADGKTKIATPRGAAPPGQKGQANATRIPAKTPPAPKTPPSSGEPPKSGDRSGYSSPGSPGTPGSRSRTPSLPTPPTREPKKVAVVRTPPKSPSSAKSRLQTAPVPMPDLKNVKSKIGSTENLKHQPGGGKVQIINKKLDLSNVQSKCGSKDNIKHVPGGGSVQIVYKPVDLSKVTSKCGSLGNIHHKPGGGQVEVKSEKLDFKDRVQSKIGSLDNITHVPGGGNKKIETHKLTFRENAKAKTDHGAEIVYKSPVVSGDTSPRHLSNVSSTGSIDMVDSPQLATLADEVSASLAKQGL

Compound | Potency
Cc1ccc(C)c(NC(=S)NNC(=O)c2csc3c2CCC(C)C3)c1 (stereo not given) | inactive
Cc1ccc(S(=O)(=O)c2nc(C)oc2NCc2ccccc2)cc1 | inactive
O=C(CSc1nc(-c2ccccc2)nn1C(=O)c1ccccc1)Nc1cccc([N+](=O)[O-])c1 | inconclusive: 25.1 µM [inhibitor, partial curve]
COC(=O)CSc1ncc2c(n1)-c1ccccc1N(Cc1ccc(Cl)cc1)S2(=O)=O | inactive
COc1ccc(-c2ccc3c(n2)CCCN3C[C@H](O)CN2CCCc3nc(-c4ccc(Br)cc4)ccc32)cc1 | inconclusive: 6.31 µM [inhibitor, partial curve, poor fit] and inconclusive: 1.58 µM [inhibitor, partial curve]
Cc1ccc2oc(-c3cccc(N)c3)nc2c1 | inconclusive: 17.8 µM [inhibitor, partial curve]
COc1cccc(C2=CC(c3cc(OC)ccc3OC)n3nnnc3N2)c1 (stereo not given) | inactive
CCC(=O)N/N=C(\C)CC(=O)Nc1ccccc1-c1ccccc1 | inconclusive: 31.6 µM [inhibitor, single point]
O=c1cc(-c2ccccc2)oc2cc(O[C@@H]3O[C@H](CO)[C@@H](O)[C@H](O)[C@H]3O)c(O)c(O)c12 | inconclusive: 39.8 µM [inhibitor, single point]
Cc1cc(/C=C2\NC(=S)N(C)C2=O)ccc1N1CCCC1 | inconclusive: 2.51 µM [inhibitor, full curve]
Oc1ccc2cccnc2c1 | inactive
Cc1cccc(-c2nc(CN3CCCC(C(=O)N4CCN(c5cc(Cl)ccc5C)CC4)C3)c(C)o2)c1 (stereo not given) | inconclusive: 11.2 µM [inhibitor, partial curve]
CCN(CC)c1ccc(NC2CC(=O)N(CCc3ccc(OC)cc3)C2=O)cc1 (stereo not given) | active: 11.2 µM
COc1cc(OC)cc(C(=O)NC(=S)NNC(=O)c2cnccn2)c1 | inconclusive: 11.2 µM [inhibitor, partial curve]
N#CCC(=O)NN=C1CCCCCCCCCCC1 | inactive
CC(=O)OCCCNc1cc(Sc2ccc(C)cc2)c2nonc2c1[N+](=O)[O-] | inconclusive: 10 µM [inhibitor, partial curve]
CCOC(=O)c1cnc2cc(C(F)(F)F)ccc2c1Nc1ccc(F)cc1F | inactive
C/C(CC(=O)Nc1ccc(Cl)cc1Cl)=N\NC(=O)c1ccncc1 | inconclusive: 3.98 µM [inhibitor, full curve, poor fit]
CC(C)OC(=O)Cn1nnc(-c2ccccc2)n1 | inactive
Cc1ccc(S(=O)(=O)NCC2CCC(C(=O)NCCc3ccccc3)CC2)cc1 (stereo not given) | inconclusive: 11.2 µM [inhibitor, partial curve]
